# Assay results taken from the supplement of paper PMC8728848.
# The list shows a part of the results.
# B1: GALT1 115 D492A (Arabidopsis thaliana), Q8L7F9 (protein)
# chain: DPMRGSHHHHHHGMASMTGGQQMGRDLYDDDDKSRLQKPYITAAASVVVTPNTTLPMEWLRITLPDFMKEARNTQEAISGDDIAVVSGLFVEQNVSKEEREPLLTWNRLESLVDNAQSLVNGVDAIKEAGIVWESLVSAVEAKKLVDVNENQTRKGKEELCPQFLSKMNATEADGSSLKLQIPCGLTQGSSITVIGIPDGLVGSFRIDLTGQPLPGEPDPPIIVHYNVRLLGDKSTEDPVIVQNSWTASQDWGAEERCPKFDPDMNKKVDDLDECNKMVGGEINRTSSTSLQSNTSRGVPVAREASKHEKYFPFKQGFLSVATLRVGTEGMQMTVDGKHITSFAFRDTLEPWLVSEIRITGDFRLISILASGLPTSEESEHVVDLEALKSPTLSPLRPLDLVIGVFSTANNFKRRMAVRRTWMQYDDVRSGRVAVRFFVGLHKSPLVNLELWNEARTYGDVQLMPFVDYYSLISWKTLAICIFGTEVDSAKFIMKTDDAAFVRVDEVLLSLSMTNNTRGLIYGLINSDSQPIRNPDSKWYISYEEWPEEKYPPWAHGPGYIVSRDIAESVGKLFKEGNLKMFKLEDVAMGIWIAELTKHGLEPHYENDGRIISDGCKDGYVVAHYQSPAEMTCLWRKYQETKRSLCCREW
# What was measured:
# Assay in all cases: glycan array binding signal (z-score within array); higher = stronger binding
# Settings in all cases: glycan notation: IUPAC condensed, linker removed
# [1] = target: Fuc(a1-2)[Gal(a1-3)]Gal(b1-4)GlcNAc(b1-2)Man(a1-3)[Fuc(a1-2)[Gal(a1-3)]Gal(b1-4)GlcNAc(b1-2)Man(a1-6)]Man(b1-4)GlcNAc(b1-4)GlcNAc
# In short: (§1)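 Glycan array binding is given as a within-array Z-score, which can be read as non-binding when negative. The arrays, 3228 of them, came from the Consortium for Functional Glycomics database and were retained only where the protein sequence was available. Z-scores were averaged across arrays of the same protein sequence at different concentrations or buffers and across linkers.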
# [2] = target: Fuc(a1-2)[Gal(a1-3)]Gal(b1-4)[Fuc(a1-3)]GlcNAc
# In short: as §1
# [3] = target: Fuc(a1-2)[Gal(a1-4)]Gal(b1-4)GlcNAc
# In short: as §1
# [4] = target: Fuc(a1-2)[GalNAc(a1-3)]Gal
# In short: as §1
# [5] = target: Fuc(a1-2)[GalNAc(a1-3)]Gal(b1-3)GlcNAc
# In short: as §1
# [6] = target: Fuc(a1-2)[GalNAc(a1-3)]Gal(b1-3)GlcNAc(b1-2)Man(a1-3)[Fuc(a1-2)[GalNAc(a1-3)]Gal(b1-3)GlcNAc(b1-2)Man(a1-6)]Man(b1-4)GlcNAc(b1-4)GlcNAc
# In short: as §1
# [7] = target: Fuc(a1-2)[GalNAc(a1-3)]Gal(b1-4)Glc
# In short: as §1
# [8] = target: Fuc(a1-2)[GalNAc(a1-3)]Gal(b1-4)GlcNAc
# In short: as §1
# [9] = target: Fuc(a1-2)[GalNAc(a1-3)]Gal(b1-4)GlcNAc(b1-2)Man(a1-3)[GalNAc(a1-3)[Fuc(a1-2)]Gal(b1-4)GlcNAc(b1-2)Man(a1-6)]Man(b1-4)GlcNAc(b1-4)GlcNAc
# In short: as §1
# [10] = target: Fuc(a1-2)[GalNAc(a1-3)]Gal(b1-4)GlcNAc(b1-3)Gal(b1-4)GlcNAc
# In short: as §1
# [11] = target: Fuc(a1-2)[GalNAc(a1-3)]Gal(b1-4)GlcNAc(b1-3)Gal(b1-4)GlcNAc(b1-3)Gal(b1-4)GlcNAc
# In short: as §1
# [12] = target: Fuc(a1-2)[GalNAc(a1-3)]Gal(b1-4)[Fuc(a1-3)]GlcNAc
# In short: as §1
# [13] = target: Fuc(a1-2)[GalNAc(a1-4)]Gal(b1-4)GlcNAc
# In short: as §1
# [14] = target: Fuc(a1-2)[GalNAc(b1-3)]Gal
# In short: as §1
# [15] = target: Fuc(a1-3)GlcNAc
# In short: as §1
# [16] = target: Fuc(a1-3)[Gal(b1-4)]Glc6S
# In short: as §1
# [17] = target: Fuc(a1-3)[Gal(b1-4)]GlcNAc
# In short: as §1
# [18] = target: Fuc(a1-3)[Gal(b1-4)]GlcNAc(b1-2)Man(a1-3)[Fuc(a1-3)[Gal(b1-4)]GlcNAc(b1-2)Man(a1-6)]Man(b1-4)GlcNAc(b1-4)GlcNAc
# In short: as §1
# [19] = target: Fuc(a1-3)[Gal(b1-4)]GlcNAc(b1-2)Man(a1-6)[Gal(b1-4)GlcNAc(b1-2)Man(a1-3)]Man(b1-4)GlcNAc(b1-4)GlcNAc
# In short: as §1
# [20] = target: Fuc(a1-3)[Gal(b1-4)]GlcNAc(b1-3)Gal(b1-3)[Fuc(a1-4)]GlcNAc
# In short: as §1
# [21] = target: Fuc(a1-3)[Gal(b1-4)]GlcNAc(b1-4)Gal(b1-4)[Fuc(a1-3)]GlcNAc
# In short: as §1
# [22] = target: Fuc(a1-3)[Gal(b1-4)]GlcNAc(b1-4)Gal(b1-4)[Fuc(a1-3)]GlcNAc(b1-4)Gal(b1-4)[Fuc(a1-3)]GlcNAc
# In short: as §1
# [23] = target: Fuc(a1-3)[Gal(b1-4)]GlcNAc6S
# In short: as §1
# [24] = target: Fuc(a1-3)[Gal3S(b1-4)]Glc6S
# In short: as §1
# [25] = target: Fuc(a1-3)[Gal3S(b1-4)]GlcNAc
# In short: as §1
# [26] = target: Fuc(a1-3)[Gal3S(b1-4)]GlcNAc6S
# In short: as §1
# [27] = target: Fuc(a1-3)[GalNAc(b1-4)]GlcNAc
# In short: as §1
# [28] = target: Fuc(a1-3)[Neu5Ac(a2-3)]Gal(b1-4)GlcNAc(b1-3)GalNAc
# In short: as §1
# [29] = target: Fuc(a1-4)GlcNAc
# In short: as §1
# [30] = target: Fuc(b1-3)GlcNAc
# In short: as §1
binder,measurement,setting,value
B1,glycan array binding signal (z-score),[1],-0.005
same,glycan array binding signal (z-score),[2],-0.252
same,glycan array binding signal (z-score),[3],0.104
same,glycan array binding signal (z-score),[4],-0.352
same,glycan array binding signal (z-score),[5],0.58
same,glycan array binding signal (z-score),[6],-0.087
same,glycan array binding signal (z-score),[7],-0.201
same,glycan array binding signal (z-score),[8],-0.228
same,glycan array binding signal (z-score),[9],-0.265
same,glycan array binding signal (z-score),[10],-0.282
same,glycan array binding signal (z-score),[11],0.475
same,glycan array binding signal (z-score),[12],0.043
same,glycan array binding signal (z-score),[13],-0.139
same,glycan array binding signal (z-score),[14],-0.27
same,glycan array binding signal (z-score),[15],-0.403
same,glycan array binding signal (z-score),[16],-0.395
same,glycan array binding signal (z-score),[17],0.29
same,glycan array binding signal (z-score),[18],-0.034
same,glycan array binding signal (z-score),[19],0.456
same,glycan array binding signal (z-score),[20],-0.298
same,glycan array binding signal (z-score),[21],-0.107
same,glycan array binding signal (z-score),[22],-0.408
same,glycan array binding signal (z-score),[23],-0.228
same,glycan array binding signal (z-score),[24],-0.311
same,glycan array binding signal (z-score),[25],0.542
same,glycan array binding signal (z-score),[26],0.448
same,glycan array binding signal (z-score),[27],-0.21
same,glycan array binding signal (z-score),[28],-0.012
same,glycan array binding signal (z-score),[29],-0.25
same,glycan array binding signal (z-score),[30],-0.007
